# Reference: the supplement of paper PMC3334620
# The full ranking holds about 33,000 sequences; the median of “E-score (-0.5 to 0.5)” is about -0.021, and the highest 2% start at about 0.32. The list shows a part of the results.
# Target: T1, Zap1 (UniProt P47043)
# T1 sequence: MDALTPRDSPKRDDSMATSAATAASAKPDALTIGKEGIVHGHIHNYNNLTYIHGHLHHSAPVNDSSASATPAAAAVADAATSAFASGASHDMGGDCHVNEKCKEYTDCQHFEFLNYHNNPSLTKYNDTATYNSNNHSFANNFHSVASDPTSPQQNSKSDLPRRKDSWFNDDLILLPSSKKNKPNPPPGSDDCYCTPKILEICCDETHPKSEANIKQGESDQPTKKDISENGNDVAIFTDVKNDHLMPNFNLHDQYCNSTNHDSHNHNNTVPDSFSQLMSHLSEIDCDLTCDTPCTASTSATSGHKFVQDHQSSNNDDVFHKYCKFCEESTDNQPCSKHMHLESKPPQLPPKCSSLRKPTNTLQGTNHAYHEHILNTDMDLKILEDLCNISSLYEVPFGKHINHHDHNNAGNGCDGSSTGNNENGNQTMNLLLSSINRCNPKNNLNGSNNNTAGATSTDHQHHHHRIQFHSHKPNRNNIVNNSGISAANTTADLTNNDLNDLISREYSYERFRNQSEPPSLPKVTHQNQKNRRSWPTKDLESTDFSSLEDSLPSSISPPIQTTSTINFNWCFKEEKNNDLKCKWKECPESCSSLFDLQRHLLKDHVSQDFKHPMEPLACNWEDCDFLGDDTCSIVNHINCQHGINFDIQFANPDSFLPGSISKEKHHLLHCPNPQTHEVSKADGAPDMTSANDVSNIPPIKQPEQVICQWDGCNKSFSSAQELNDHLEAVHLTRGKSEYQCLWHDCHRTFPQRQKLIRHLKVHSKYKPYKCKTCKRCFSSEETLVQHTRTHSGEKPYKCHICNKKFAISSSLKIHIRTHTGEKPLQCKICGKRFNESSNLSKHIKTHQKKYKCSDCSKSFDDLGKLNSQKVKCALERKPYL
# Assay: PBM E-score (8-mer binding enrichment) (E-score (-0.5 to 0.5)); higher = stronger / more preferred TF binding; most listed sequences are background and not binding sites
# Conditions: protein concentration: 200 nM; construct: GST-full length
# How it was run: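 Full-length yeast transcription factors or their DNA-binding domains, GST-tagged and expressed with PURExpress, were applied at about 100-200 nM to universal all-10-mer Agilent arrays. These arrays had been made double-stranded by primer extension on fresh or once-stripped slides. Detection used fluorescent anti-GST, normalisation used masliner, and E-scores for ungapped eight-base words pooled with reverse complements came from the Universal PBM Analysis Suite.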
row,Sequence,PBM E-score
1,ACAGGACC,0.0616
2,AGACCGAT,0.0418
3,AGCATCCC,-0.16
4,CACATGGG,-0.117
5,AGTGGGTA,0.112
6,GTTGGGGA,-0.00188
7,AAAAACGA,0.212
8,TATGGGAA,-0.0198
9,ACTACAAC,0.119
10,CACGCAGA,-0.0783
11,TCTCCGCA,-0.174
12,CAGGTACC,0.415
13,AGTCTGCG,-0.275
14,GAACGGGC,-0.264
15,CCTCCTCG,-0.229
16,GAAGCGTC,-0.275
17,GTAGCCCA,-0.0588
18,GCAGGGGA,-0.177
19,AGCCTGGC,-0.293
20,CGGAACGC,-0.215
21,CCGGAGTC,-0.0405
22,CGGACCTC,-0.0859

row,Sequence,PBM E-score
1,GCTATAGA,-0.136
2,GATGCGGC,-0.118
3,AGTTTAAC,0.0788
4,CGAGACTA,-0.0504
5,CGCTTGGC,-0.303
6,AGTAGACC,-0.037
7,CACCCCTA,0.0983
8,CTGCCTGC,-0.22
9,CACCGCCG,-0.124
10,CAATATGA,-0.0378
11,ATACCCTA,0.459
12,AATCTCTA,0.0108
13,CGTTGCAA,0.0148
14,GCTAAGAC,-0.124
15,CAAGCTCG,-0.0494
16,ATAAACGC,-0.221
17,CCGTTGGC,-0.157
18,CTGTATCC,-0.00943
19,CCGATCAC,-0.0109
20,CTAGGGCC,-0.0851
21,TAAACCGA,-0.0627
22,GTTCGTCA,-0.0052

row,Sequence,PBM E-score
1,AGCCCTGC,-0.192
2,AGGGCCAT,0.00699
3,CGTGGGGA,0.0107
4,GCAGGTGA,-0.0435
5,CTCATGTC,-0.109
6,AACGGCTT,-0.209
7,AGCCATGG,-0.1
8,TACGGCTA,-0.0641
9,AGCCTTCC,-0.343
10,ATCGGTTC,0.0913
11,CAGATGAG,-0.0683
12,AGAGCTGG,-0.197
13,GGGGCCAA,-0.069
14,GACTGTAA,0.0478
15,GGAGCCCA,-0.166
16,GCCTTTGA,0.0766
17,GTAGTTAA,0.2
18,ACTTAGGA,-0.067
19,CAGGCCAC,-0.134
20,AGTAGATG,-0.0249
21,CCGCTAAG,0.101
22,CGGGCCCG,-0.019

row,Sequence,PBM E-score
1,AGCTCCGA,-0.184
2,CAGACGCG,0.0199
3,ACCGGGAA,0.118
4,GTGACACA,-0.0403
5,AGGGGTAC,0.398
6,CTATTCAA,0.205
7,GGGAGTAA,0.101
8,AGCTTGGC,0.0137
9,ACTCATTG,-0.0633
10,AGCACGCG,-0.131
11,GAGACGAA,-0.0952
12,CTTCGTTC,-0.232
13,CGTGTTCC,-0.156
14,CGAGACCC,0.248
15,GCGTCTCC,-0.163
16,AGGTGCCA,0.0049
17,AGATGGAG,-0.146
18,CTTGATGC,-0.106
19,GAAAAAAC,0.137
20,CTTTCTCA,0.129
